Assay results as given in PubChem BioAssay AID485344 (National Center for Advancing Translational Sciences (NCATS), 2010).
The campaign covered roughly 340,000 compounds. About 6,900 (2%) were called active. Rule as the data show it: active = inhibition above about 30%; inactive = below that, where a call was filed. The entries are a selection whose mix differs from that of the whole data set. Where no call is shown, the source filed none.

target: D(2) dopamine receptor (Homo sapiens) (UniProt P14416); experiment: HTS Assay for Allosteric Antagonists of the Human D2 Dopamine Receptor: Primary Screen for Antagonists; details: HEK293 TREx D2 cells, calcium flux, dopamine EC80; at 10 µM; stronger effect = higher value; also: 0% is about no effect
Sequence of UniProt P14416 (P14416 whole entry, looked up): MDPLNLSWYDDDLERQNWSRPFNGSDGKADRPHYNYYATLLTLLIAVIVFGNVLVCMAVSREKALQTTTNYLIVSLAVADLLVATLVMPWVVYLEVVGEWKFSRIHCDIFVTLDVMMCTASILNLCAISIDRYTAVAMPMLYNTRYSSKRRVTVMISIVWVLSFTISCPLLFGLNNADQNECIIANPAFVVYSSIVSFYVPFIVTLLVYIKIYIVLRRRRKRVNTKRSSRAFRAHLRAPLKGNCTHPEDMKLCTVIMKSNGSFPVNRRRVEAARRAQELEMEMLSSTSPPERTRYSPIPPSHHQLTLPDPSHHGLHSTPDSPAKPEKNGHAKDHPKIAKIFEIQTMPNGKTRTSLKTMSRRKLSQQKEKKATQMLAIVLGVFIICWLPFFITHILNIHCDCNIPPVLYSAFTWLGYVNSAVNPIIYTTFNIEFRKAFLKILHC
Method in brief: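 Measurement of antagonist activity uses fluorescent calcium dye in inducible HEK293 T-REx D2 cells: 10 s baseline, compound addition with 180 s read, EC80 dopamine addition with a further 180 s read.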

Row | Compound | inhibition
1 | COc1cccc(N2CCN(C(=O)c3cc4c(=O)n(Cc5ccccc5)ccc4nc3C)CC2)c1 | 13.3%
2 | Cc1cccn2c(=O)c(C(=O)NCc3ccccc3Cl)c(O)nc12 | 5.23%
3 | COc1cc(C)ccc1OCCCn1c(-c2ccc(Cl)cc2)nc2ccccc2c1=O | -8.45%
4 | CC(C)S(=O)(=O)c1oc(-c2ccc(F)cc2)nc1S(=O)(=O)c1ccccc1 | -5.69%
5 | CN1CCN(c2oc(/C=C/c3ccc(F)cc3)nc2C#N)CC1 | -14.5%
6 | Cc1cccc(-n2c(SCc3nc(-c4ccccc4C)no3)nnc2-c2ccccc2)c1 | 12.3%
7 | CCOC(=O)c1ccccc1NS(=O)(=O)c1ccc(N2CCCCS2(=O)=O)cc1 | -11.8%
8 | COc1cc(NC(=O)c2nn(-c3ccc(C)cc3)c(=O)c3c2c2ccccc2n3C)cc(OC)c1OC | 1.19%
9 | CCc1nn(CC(=O)NC(C)CC)c(=O)c2cc3c(OC)cccc3n12 (configuration not stated) | -11.7%
10 | Cc1cc(C(F)(F)F)nn1-c1nc(-c2ccccc2)cc(C(F)(F)F)n1 | -13%
11 | CCOC(=O)c1ccc(NC(=O)CC2C(=O)N(c3ccc(C)cc3)C(=O)N2C2CCCCC2)cc1 (configuration not stated) | 3.19%
12 | Cc1cc(=O)n(CC(=O)Nc2ccc([N+](=O)[O-])cc2)c(-n2nc(C)cc2C)n1 | 17.4%
13 | Cc1[nH]c2ccccc2c1C(c1ccccc1)c1cccs1 (configuration not stated) | 16.8%
14 | Cc1ccccc1NC(=O)Cn1c(=O)n(CCc2ccccc2)c(=O)c2sc3ccccc3c21 | 8.79%
15 | COc1ccc(CCN2C(=O)c3[nH]nc(-c4ccccc4O)c3C2c2cccc(OC)c2)cc1 (configuration not stated) | 11.3%
16 | COC(=O)c1c(NC(=O)Cc2coc3ccc(C)cc23)sc2c1CCC2 | -5.58%
17 | Cc1cccc(NC(=O)c2sc3nc4c(cc3c2N)CCCCCC4)c1C | 17.5%
18 | CC(C)C1C(=O)Nc2ccc(S(=O)(=O)NCc3ccc(Cl)cc3)cc21 (configuration not stated) | 0.384%
19 | COc1ccc(C2C(C(N)=O)=C(C)Nc3nc(CCCO)nn32)cc1 (configuration not stated) | -18.8%
20 | COc1ccc(/C=N/NC(=O)c2sccc2OCc2ccc(F)cc2)cc1OC | active: 36.7%
21 | Cc1ccc(NC(=O)CSc2c3c(nc4ccccc24)CCCC3)cc1F | 3.28%

Row | Compound | inhibition
22 | O=C(c1ccccc1Cl)N(Cc1ccco1)Cc1ccco1 | -4.64%
23 | CN(Cc1ccccc1)c1ccc(-c2nc(-c3ccco3)no2)cc1[N+](=O)[O-] | 28.4%
24 | CC(=O)c1cccc(NC(=O)c2c(-c3ccccc3)c(-c3ccccc3)nn(C)c2=O)c1 | 1.53%
25 | Cc1ccccc1Nc1c(-c2cccc(N(C)C)c2)nc2ccc(Br)cn12 | 5.44%
26 | Cc1cc(F)ccc1-n1nnc(C(N)=O)c1C | 10.4%
27 | Cc1cccc(C(=O)Nc2cccc(C(=O)OCc3cc(=O)n4nc(C(C)C)sc4n3)c2)c1 | 9.82%
28 | OC(COC(c1ccccc1)c1ccccc1)CN1CCN(c2ccccn2)CC1 (configuration not stated) | active: 77.8%
29 | CC(NC(=O)c1ccc(NC(=O)c2nsc3ccccc23)cc1)c1ccccc1 (configuration not stated) | 18.2%
30 | COc1ccc2c(C(=O)c3ccc(C)cc3)n(Cc3ccc(C(N)=O)cc3)[n+]([O-])c2c1 | active: 60.4%
31 | Cn1nnnc1SCCNCc1ccc(OCc2ccccc2Cl)cc1 | -5.58%
32 | O=C(COc1ccccc1)NCc1ccc2c(c1)CCN2C(=O)c1ccccc1 | 1.45%
33 | Cc1ccc(N(C)S(=O)(=O)c2ccc3[nH]c4c(c3c2)CCCC4)cc1 | -9.14%
34 | Cc1cc(Sc2ccc(Cl)cc2)nc2ccccc12 | 6.5%
35 | O=C(CSc1ccccc1)NCc1ccc2c(c1)CCN2C(=O)c1ccc(Cl)cc1 | -26%
36 | O=C(Nc1cccc(Cl)c1)c1cc(-c2ccc3c(c2)OCCO3)on1 | -1.8%
37 | Cc1nnc(N2CCCC(C(=O)Nc3cccc(C(F)(F)F)c3)C2)c2nn(-c3ccccc3)c(C)c12 (configuration not stated) | -8.3%
38 | Cc1cccc(C(=O)Nc2cccc(OCc3cc(=O)n4cccc(C)c4n3)c2)c1 | 5.75%
39 | Cc1cccc(N(C)C(CNS(=O)(=O)c2ccccc2)c2ccccc2)c1 (configuration not stated) | -1.31%
40 | CCN(CC)CCNC(=O)C(=O)NCC(c1cccnc1)N1CCN(c2ccccc2)CC1 (configuration not stated) | 20.3%
41 | Cc1ccc(C)c(Nc2nc(-c3ccccc3)c3cc(Br)ccc3n2)c1 | -5.99%
42 | COc1ccc(CCNC(=O)CCCCn2c(=O)c3ccccc3n(CC(=O)Nc3ccc(C)cc3C)c2=O)cc1OC | -8.12%

Row | Compound | inhibition
43 | O=C(COc1ccccc1)NCCc1csc(-c2cccc(F)c2)n1 | -3.83%
44 | COC(=O)c1cccc(Cn2nnc3sc4c(c3c2=O)CCC(C(C)(C)C)C4)c1 (configuration not stated) | 5.23%
45 | CCN1C(=O)C(Cc2nc3ccccc3c(=O)n2-c2ccc(OC)cc2)c2cc(C)ccc21 (configuration not stated) | -4.2%
46 | N#Cc1cccc(NC(=O)Cn2nc(Cc3ccncc3)c3ccccc3c2=O)c1 | -17.1%
47 | COc1ccc(-c2cc3c(=O)n(CC(=O)Nc4ccc(Br)c(C)c4)ccn3n2)cc1OC | -4.48%
48 | Cc1cc(S(=O)(=O)Nc2cc3c(cc2NCc2ccccc2)n(C)c(=O)n3C)ccc1F | -15.1%
49 | O=C(CSCc1ccc(F)cc1)N1CCc2c([nH]c3ccccc23)C1c1ccc(F)cc1 (configuration not stated) | -7.58%
50 | O=C(CCn1c(=O)c2cccn2c2cccnc21)Nc1ccccc1Br | -3.62%
51 | Cc1cccc(NC(=O)CSc2nnc3[nH]c(=O)cc(C)n23)c1C | 19.5%
52 | CC(C)(C)c1ccc(-c2cn(-c3ccc(Br)cc3)c3[n+]2CCCS3)cc1 | active: 41.8%
53 | CC(C)Oc1ccc(C2CC(=O)N(c3ccc(N(C)C)cc3)C2=O)cc1 (configuration not stated) | active: 34%
54 | CCc1ccccc1NC(=O)CSc1nc(C)c(C(=O)Nc2ccccc2)c(-c2ccc(Cl)cc2)c1C#N | -5.35%
55 | Cc1ccc(NC(=O)C2CCN(S(=O)(=O)c3cccc4nonc34)CC2)c(Cl)c1 | -6.05%
56 | CCOC(=O)c1c(C)[nH]c(C)c1S(=O)(=O)N1CCC(C(=O)NCc2cccc(C)c2)CC1 | -11.1%
57 | O=C(Nc1ccc(-c2nc3ccccc3s2)c(O)c1)c1ccc(Br)cc1 | -0.605%
58 | Cc1nn(S(=O)(=O)c2ccc(F)cc2)c(C)c1S(=O)(=O)N1CCCCC1 | -9.84%
59 | COc1ccc(NC(=O)CSc2c3c(nc4ccccc24)CCC3)cc1Cl | -12.1%
60 | CC(C)(C)C(=O)Nc1nnc2n1CCS2 | 4.49%
61 | Cc1ccc2c(c1)N(C(=O)CCC(=O)Nc1ccc(F)cc1F)CC(C)O2 (configuration not stated) | 16.9%
62 | CCOc1ccccc1N(C)C(=O)c1cc(S(=O)(=O)NCCc2ccc(Cl)cc2)ccc1F | -2.96%
